Assay [1] has as its target human 4-1BB on Jurkat-hu4-1BB-NFκB-luc2 reporter cells (human, UniProt Q07011 24-255). The experiment in a line: cell-based or functional assay. On the set-up: AUC of activation curve, Jurkat-hu4-1BB-NFκB-luc2, no CEA+ cells / AUC of activation curve, Jurkat-hu4-1BB-NFκB-luc2 with CHO-k1-cyno CEACAM5 clone 8: unit not given beside the values.
Assay [2] deals with T1, human CEACAM5 (carcinoembryonic antigen, CEA) on cells (human, UniProt P06731 35-685).
T1 sequence: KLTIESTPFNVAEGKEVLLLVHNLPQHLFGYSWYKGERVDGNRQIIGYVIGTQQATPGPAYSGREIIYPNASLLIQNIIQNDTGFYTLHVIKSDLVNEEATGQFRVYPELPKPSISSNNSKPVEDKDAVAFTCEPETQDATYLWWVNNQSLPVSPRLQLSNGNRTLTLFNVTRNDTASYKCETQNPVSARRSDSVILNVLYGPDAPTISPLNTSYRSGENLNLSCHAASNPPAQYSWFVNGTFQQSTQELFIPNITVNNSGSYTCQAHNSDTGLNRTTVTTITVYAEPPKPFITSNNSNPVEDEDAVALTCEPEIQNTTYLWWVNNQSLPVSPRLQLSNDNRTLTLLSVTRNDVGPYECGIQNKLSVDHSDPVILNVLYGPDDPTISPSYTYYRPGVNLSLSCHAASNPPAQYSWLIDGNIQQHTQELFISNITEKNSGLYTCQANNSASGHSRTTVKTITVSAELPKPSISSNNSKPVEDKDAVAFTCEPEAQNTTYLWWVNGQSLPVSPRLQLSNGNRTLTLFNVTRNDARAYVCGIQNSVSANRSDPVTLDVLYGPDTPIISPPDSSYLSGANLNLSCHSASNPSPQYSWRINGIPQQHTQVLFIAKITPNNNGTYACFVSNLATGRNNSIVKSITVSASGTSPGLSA
The experiment in a line: cell-based or functional assay. Set-up: AUC of activation curve, Jurkat-hu4-1BB-NFκB-luc2, no CEA+ cells / AUC of activation curve, Jurkat-hu4-1BB-NFκB-luc2 with CHO-k1-cyno CEACAM5 clone 8: unit not given beside the values.

The target in assay [3] is T2, cynomolgus monkey CEACAM5 on CHO-k1-cynoCEACAM5 clone 8 cells (cynomolgus monkey). The experiment in a line: cell-based or functional assay. Set-up: AUC of activation curve, Jurkat-hu4-1BB-NFκB-luc2, no CEA+ cells / AUC of activation curve, Jurkat-hu4-1BB-NFκB-luc2 with CHO-k1-cyno CEACAM5 clone 8: unit not given beside the values.
In assay [4] the target is T1, human CEACAM5 (carcinoembryonic …). The experiment in a line: flow cytometry, CHO-k1-huCEACAM5 clone 11. On the set-up: unit not given beside the values.
The target is the same in assay [5]. The experiment in a line: flow cytometry, CHO-k1-huCEACAM5 clone 11. For orientation: A flow cytometer gives signals particle by particle.
The target is the same in assay [6]. The experiment in a line: flow cytometry, CHO-k1-huCEACAM5 clone 11. This is another data set of the same source.
Assay [7] has the same target. The experiment in a line: flow cytometry, CHO-k1-huCEACAM5 clone 12.
Assay [8] shares this target. The experiment in a line: flow cytometry, CHO-k1-huCEACAM5 clone 13. Set-up: unit not given beside the values.
The target is the same in assay [9]. The experiment in a line: flow cytometry, CHO-k1-huCEACAM5 clone 12. On the set-up: unit not given beside the values.
Assay [10] deals with T2, cynomolgus monkey CEACAM5 on …. The experiment in a line: flow cytometry, CHO-k1-cynoCEACAM5 clone 8. Set-up: unit not given beside the values.
Assay [11] shares this target. The experiment in a line: flow cytometry, CHO-k1-cynoCEACAM5 clone 8. On the set-up: unit not given beside the values. This is another data set of the same source.
For assay [12], the target named is T1, human CEACAM5 (carcinoembryonic …). The experiment in a line: flow cytometry, CHO-k1-huCEACAM5 clone 17. Set-up: unit not given beside the values.
Assay [13] shares this target. The experiment in a line: flow cytometry, CHO-k1-huCEACAM5 clone 12. This is another data set of the same source.
The next assay addresses T3, hu N(A2-B2)A-avi-His (human, biotin on the avi tag where used biotinylated).
T3 construct: chimeric soluble antigen; also called hu N(A2-B2)A-avi-His B; human CEA (A2 domain)
T3 chain: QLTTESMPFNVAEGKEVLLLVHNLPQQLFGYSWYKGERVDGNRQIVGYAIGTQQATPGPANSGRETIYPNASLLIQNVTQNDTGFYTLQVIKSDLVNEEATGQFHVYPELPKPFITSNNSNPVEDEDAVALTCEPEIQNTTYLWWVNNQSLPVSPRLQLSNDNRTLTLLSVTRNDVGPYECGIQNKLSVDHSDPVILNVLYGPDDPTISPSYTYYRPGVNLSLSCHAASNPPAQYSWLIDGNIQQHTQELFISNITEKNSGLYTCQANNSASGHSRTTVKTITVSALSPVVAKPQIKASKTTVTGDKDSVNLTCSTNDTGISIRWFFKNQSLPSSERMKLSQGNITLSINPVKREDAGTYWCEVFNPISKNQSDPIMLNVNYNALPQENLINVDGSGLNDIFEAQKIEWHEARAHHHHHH
The experiment in a line: SPR (Biacore T200), huN(A2-B2)A immobilised on a CM5 chip, construct injected as analyte 1. On the procedure: All SPR experiments were performed on a Biacore T200 at 25° C. with HBS-EP as running buffer (0.01 M HEPES pH 7.4, 0.15 M NaCl, 3 mM EDTA, 0.005% Surfactant P20, Biacore, Freiburg/Germany).
Bulk refractive index differences were corrected for by subtracting the response obtained in a reference flow cell, where no protein was immobilized.
A general note: Surface plasmon resonance follows binding to a sensor surface in real time, without labels.

For assay [14], the target named is T1, human CEACAM5 (carcinoembryonic …). The experiment in a line: flow cytometry, CHO-k1-huCEACAM5 clone 17.
Assay [15] shares this target. The experiment in a line: flow cytometry, CHO-k1-huCEACAM5 clone 12. Set-up: unit not given beside the values. The source holds these as a separate data set.
The target is the same in assay [16]. The experiment in a line: cell-based or functional assay.
Assay [17] has as its target T2, cynomolgus monkey CEACAM5 on …. The experiment in a line: cell-based or functional assay.
In assay [18] the target is T1, human CEACAM5 (carcinoembryonic …). The experiment in a line: flow cytometry, CHO-k1-huCEACAM5 clone 11. Set-up: unit not given beside the values. This is another data set of the same source.

The text below walks through data of patent US20220267464A1 (Hoffmann-La Roche, published 2022).

Read-outs that look alike come from different tables or passages of the source.

In general, EC50 refers to the concentration at which the effect is half-maximal.

Sequence of UniProt Q07011 (Q07011 24-255 limits assumed): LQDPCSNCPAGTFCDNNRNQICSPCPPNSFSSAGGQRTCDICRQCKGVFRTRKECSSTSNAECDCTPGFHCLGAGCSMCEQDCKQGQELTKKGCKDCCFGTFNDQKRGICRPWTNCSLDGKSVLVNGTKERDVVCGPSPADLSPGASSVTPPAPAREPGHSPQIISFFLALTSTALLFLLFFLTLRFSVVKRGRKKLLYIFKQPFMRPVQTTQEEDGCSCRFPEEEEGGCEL

B1: CEA(A5H1EL1D)-4-1BBL (Fc fusion)
chain 1: REGPELSPDDPAGLLDLRQGMFAQLVAQNVLLIDGPLSWYSDPGLAGVSLTGGLSYKEDTKELVVAKAGVYYVFFQLELRRVVAGEGSGSVSLALHLQPLRSAAGAAALALTVDLPPASSEARNSAFGFQGRLLHLSAGQRLGVHLHTEARARHAWQLTQGATVLGLFRVTPEIPAGLGGGGSGGGGSREGPELSPDDPAGLLDLRQGMFAQLVAQNVLLIDGPLSWYSDPGLAGVSLTGGLSYKEDTKELVVAKAGVYYVFFQLELRRVVAGEGSGSVSLALHLQPLRSAAGAAALALTVDLPPASSEARNSAFGFQGRLLHLSAGQRLGVHLHTEARARHAWQLTQGATVLGLFRVTPEIPAGLGGGGSGGGGSRTVAAPSVFIFPPSDRKLKSGTASVVCLLNNFYPREAKVQWKVDNALQSGNSQESVTEQDSKDSTYSLSSTLTLSKADYEKHKVYACEVTHQGLSSPVTKSFNRGE[human IgG1 Fc with changes not spelt out]
chain 2: REGPELSPDDPAGLLDLRQGMFAQLVAQNVLLIDGPLSWYSDPGLAGVSLTGGLSYKEDTKELVVAKAGVYYVFFQLELRRVVAGEGSGSVSLALHLQPLRSAAGAAALALTVDLPPASSEARNSAFGFQGRLLHLSAGQRLGVHLHTEARARHAWQLTQGATVLGLFRVTPEIPAGLGGGGSGGGGSASTKGPSVFPLAPSSKSTSGGTAALGCLVEDYFPEPVTVSWNSGALTSGVHTFPAVLQSSGLYSLSSVVTVPSSSLGTQTYICNVNHKPSNTKVDEKVEPKSC
heavy: EVQLLESGGGLVQPGGSLRLSCAASGFTFTDYYMNWVRQAPGKGLEWLGFIGNKANAYTTEYSASVKGRFTISRDKSKNTLYLQMNSLRAEDTATYYCTRDRGLRFYFDYWGQGTTVTVSSASTKGPSVFPLAPSSKSTSGGTAALGCLVKDYFPEPVTVSWNSGALTSGVHTFPAVLQSSGLYSLSSVVTVPSSSLGTQTYICNVNHKPSNTKVDKKVEPKSCDKTHTCPPCPAPEAAGGPSVFLFPPKPKDTLMISRTPEVTCVVVDVSHEDPEVKFNWYVDGVEVHNAKTKPREEQYNSTYRVVSVLTVLHQDWLNGKEYKCKVSNKALGAPIEKTISKAKGQPREPQVCTLPPSRDELTKNQVSLSCAVKGFYPSDIAVEWESNGQPENNYKTTPPVLDSDGSFFLVSKLTVDKSRWQQGNVFSCSVMHEALHNHYTQKSLSLSP
light: EIVLTQSPATLSLSPGERATLSCRASSSVTYIHWYQQKPGQAPRSWIYATSNLASGIPARFSGSGSGTDFTLTISSLEPEDFAVYYCQHWSSKPPTFGQGTKLEIKRTVAAPSVFIFPPSDEQLKSGTASVVCLLNNFYPREAKVQWKVDNALQSGNSQESVTEQDSKDSTYSLSSTLTLSKADYEKHKVYACEVTHQGLSSPVTKSFNRGEC
notes: split trimeric 4-1BBL Fc (kih) P329G LALA with one anti-CEA Fab
In the case of B1, in assay [1], the “AUC of activation curve, Jurkat-hu4-1BB-NFκB-luc2, no CEA+ cells” value was 2560. For the same molecule, in [2], the “AUC of activation curve, Jurkat-hu4-1BB-NFκB-luc2 with CHO-k1-human CEACAM5 clone 11” value is 131000. In addition, in [2], the “AUC of activation curve, Jurkat-hu4-1BB-NFκB-luc2 with CHO-k1-human CEACAM5 clone 12” value was 137000. Further, the “AUC of activation curve, Jurkat-hu4-1BB-NFκB-luc2 with CHO-k1-cyno CEACAM5 clone 8” value in [3] turned out to be 61700. Besides, the AUC in [4] worked out at 1530; in assay [8] it was 48500; in [9] it was 30500; in assay [10], 368; in assay [11], 6190; in assay [12], 9080. Besides, the AUC came to 4420 in assay [15] and 8760 in assay [18]. Further, the half-maximal effective concentration (EC50) in assay [5] stood at 296 nM; in assay [6], 61.7 nM; in assay [7] it was 691 nM; in assay [13] it was 148 nM; in assay [14] it was 190 nM. Also, the binding result with hu N(A2-B2)A-avi-His was “binds”. The “EC50, NFκB-luciferase in Jurkat-hu4-1BB-NFκB-luc2 with CHO-k1-human CEACAM5 clone 11” value in assay [16] came out at 0.16 nM. The “EC50, NFκB-luciferase in Jurkat-hu4-1BB-NFκB-luc2 with CHO-k1-human CEACAM5 clone 12” value in assay [16] was determined as 0.09 nM. In addition, in assay [17], the “EC50, NFκB-luciferase in Jurkat-hu4-1BB-NFκB-luc2 with CHO-k1-cyno CEACAM5 clone 8” value amounted to 0.53 nM.
